{
  "source": "the supplement of paper PMC8728848",
  "binders": {"B1": {"name": "GS7807H-bfa-490-18-490 (Bacteroides fragilis) (protein)", "chain": "GNLEEMNIDPDNATQTHPKLLLTQICMNAFKRGTDGMYATKKVIQADGESADQYYKWTRGSFGYYDNLRNVQKMGEEAERVNAPVYTALTKFFRAYYFYELTLRFGDIPYSQALKGEKEEIYTPEYDAQEDVFAGILQELREADEILANDASVIDGDIIYNGNSTQWRKLINSFRLKVLMTLSNHTTVGNINIASEFKNIATNSPLMNSLADNGQLVYLDQQGNRYPQFNAQWSGYYMDDTFIQRMRERRDPRLFIFSAQTNKGKTEGKPIDDFSSYEGGDPAAPYSDAIIKVSEGTISPINDRFRTDPIVEPTMLMGYAELQQILAEAVVRGWISGNAQTYYEKGIRASFSFYETHAKDYAGYLNENAVAQYLKEPLVDFTQASGTEEQIERIIMQKYLVTFYQGNWDSFYEQLRTGYPDFRRPAGTEIPKRWMYPQGEYDNNGTNVETAITRQFGAGNDKINQATWWQKKS"}},
  "experiment_in_all_cases": "glycan array binding signal (z-score within array); higher = stronger binding",
  "settings_in_all_cases": "glycan notation: IUPAC condensed, linker removed",
  "key": {"Fuc(a1-2)Gal": {"molecular_target": "Fuc(a1-2)Gal", "how_it_was_run": "(§1)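 Columns mapping to the same glycan were averaged after glycan names were converted to IUPAC-condensed notation. The data come from 3228 arrays in the Consortium for Functional Glycomics database, limited to those with an available protein sequence. Binding is reported as a within-array Z-score averaged across arrays of one protein sequence and across linkers.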"}, "Fuc(a1-2)Gal(b1-3)GalNAc": {"molecular_target": "Fuc(a1-2)Gal(b1-3)GalNAc", "how_it_was_run": "as §1"}, "[1]": {"molecular_target": "Fuc(a1-2)Gal(b1-3)GalNAc(a1-3)[Fuc(a1-2)]Gal(b1-4)Glc", "how_it_was_run": "as §1"}, "[2]": {"molecular_target": "Fuc(a1-2)Gal(b1-3)GalNAc(a1-3)[Fuc(a1-2)]Gal(b1-4)GlcNAc", "how_it_was_run": "as §1"}, "[3]": {"molecular_target": "Fuc(a1-2)Gal(b1-3)GalNAc(b1-3)Gal", "how_it_was_run": "as §1"}, "[4]": {"molecular_target": "Fuc(a1-2)Gal(b1-3)GalNAc(b1-3)Gal(a1-4)Gal(b1-4)Glc", "how_it_was_run": "as §1"}, "[5]": {"molecular_target": "Fuc(a1-2)Gal(b1-3)GalNAc(b1-4)[Neu5Ac(a2-3)]Gal(b1-4)Glc", "how_it_was_run": "as §1"}, "Fuc(a1-2)Gal(b1-3)GlcNAc": {"molecular_target": "Fuc(a1-2)Gal(b1-3)GlcNAc", "how_it_was_run": "as §1"}, "[6]": {"molecular_target": "Fuc(a1-2)Gal(b1-3)GlcNAc(b1-2)Man(a1-3)[Fuc(a1-2)Gal(b1-3)GlcNAc(b1-2)Man(a1-6)]Man(b1-4)GlcNAc(b1-4)GlcNAc", "how_it_was_run": "as §1"}, "[7]": {"molecular_target": "Fuc(a1-2)Gal(b1-3)GlcNAc(b1-2)Man(a1-3)[Fuc(a1-2)Gal(b1-3)GlcNAc(b1-2)Man(a1-6)]Man(b1-4)GlcNAc(b1-4)[Fuc(a1-6)]GlcNAc", "how_it_was_run": "as §1"}, "[8]": {"molecular_target": "Fuc(a1-2)Gal(b1-3)GlcNAc(b1-3)Gal(b1-4)Glc", "how_it_was_run": "as §1"}, "[9]": {"molecular_target": "Fuc(a1-2)Gal(b1-3)GlcNAc(b1-3)GalNAc", "how_it_was_run": "as §1"}, "[10]": {"molecular_target": "Fuc(a1-2)Gal(b1-3)GlcNAc(b1-3)[Fuc(a1-2)Gal(b1-3)GlcNAc(b1-6)]GalNAc", "how_it_was_run": "as §1"}, "[11]": {"molecular_target": "Fuc(a1-2)Gal(b1-3)GlcNAc(b1-3)[Gal(b1-4)GlcNAc(b1-6)]Gal(b1-4)Glc", "how_it_was_run": "as §1"}, "[12]": {"molecular_target": "Fuc(a1-2)Gal(b1-3)GlcNAc(b1-3)[Neu5Ac(a2-6)Gal(b1-4)GlcNAc(b1-6)]Gal(b1-4)Glc", "how_it_was_run": "as §1"}, "[13]": {"molecular_target": "Fuc(a1-2)Gal(b1-3)GlcNAc6S", "how_it_was_run": "as §1"}, "[14]": {"molecular_target": "Fuc(a1-2)Gal(b1-3)[Fuc(a1-4)]GlcNAc", "how_it_was_run": "as §1"}, "[15]": {"molecular_target": "Fuc(a1-2)Gal(b1-3)[Fuc(a1-4)]GlcNAc(b1-2)Man(a1-3)[Fuc(a1-2)Gal(b1-3)[Fuc(a1-4)]GlcNAc(b1-2)Man(a1-3)]Man(b1-4)GlcNAc(b1-4)GlcNAc", "how_it_was_run": "as §1"}, "[16]": {"molecular_target": "Fuc(a1-2)Gal(b1-3)[Fuc(a1-4)]GlcNAc(b1-2)Man(a1-3)[Fuc(a1-2)Gal(b1-3)[Fuc(a1-4)]GlcNAc(b1-2)Man(a1-6)]Man(b1-4)GlcNAc(b1-4)[Fuc(a1-6)]GlcNAc(b1-4)[Fuc(a1-6)]GlcNAc", "how_it_was_run": "as §1"}, "[17]": {"molecular_target": "Fuc(a1-2)Gal(b1-3)[Fuc(a1-4)]GlcNAc(b1-3)[Fuc(a1-3)[Gal(b1-4)]GlcNAc(b1-6)]Gal(b1-4)Glc", "how_it_was_run": "as §1"}, "[18]": {"molecular_target": "Fuc(a1-2)Gal(b1-3)[Fuc(a1-4)]GlcNAc(b1-3)[Gal(b1-4)GlcNAc(b1-6)]Gal(b1-4)Glc", "how_it_was_run": "as §1"}, "Fuc(a1-2)Gal(b1-4)Glc": {"molecular_target": "Fuc(a1-2)Gal(b1-4)Glc", "how_it_was_run": "as §1"}, "Fuc(a1-2)Gal(b1-4)Glc6S": {"molecular_target": "Fuc(a1-2)Gal(b1-4)Glc6S", "how_it_was_run": "as §1"}, "Fuc(a1-2)Gal(b1-4)GlcNAc": {"molecular_target": "Fuc(a1-2)Gal(b1-4)GlcNAc", "how_it_was_run": "as §1"}, "[19]": {"molecular_target": "Fuc(a1-2)Gal(b1-4)GlcNAc(b1-2)Man", "how_it_was_run": "as §1"}, "[20]": {"molecular_target": "Fuc(a1-2)Gal(b1-4)GlcNAc(b1-2)Man(a1-3)[Fuc(a1-2)Gal(b1-4)GlcNAc(b1-2)Man(a1-6)]Man(b1-4)GlcNAc(b1-4)GlcNAc", "how_it_was_run": "as §1"}, "[21]": {"molecular_target": "Fuc(a1-2)Gal(b1-4)GlcNAc(b1-2)Man(a1-3)[Fuc(a1-2)Gal(b1-4)GlcNAc(b1-2)Man(a1-6)]Man(b1-4)GlcNAc(b1-4)[Fuc(a1-6)]GlcNAc", "how_it_was_run": "as §1"}, "[22]": {"molecular_target": "Fuc(a1-2)Gal(b1-4)GlcNAc(b1-2)[Fuc(a1-2)Gal(b1-4)GlcNAc(b1-4)]Man(a1-3)[Fuc(a1-2)Gal(b1-4)GlcNAc(b1-2)Man(a1-6)]Man(b1-4)GlcNAc(b1-4)GlcNAc", "how_it_was_run": "as §1"}, "[23]": {"molecular_target": "Fuc(a1-2)Gal(b1-4)GlcNAc(b1-3)Gal(b1-4)GlcNAc", "how_it_was_run": "as §1"}, "[24]": {"molecular_target": "Fuc(a1-2)Gal(b1-4)GlcNAc(b1-3)Gal(b1-4)GlcNAc(b1-2)Man(a1-3)[Fuc(a1-2)Gal(b1-4)GlcNAc(b1-3)Gal(b1-4)GlcNAc(b1-2)Man(a1-6)]Man(b1-4)GlcNAc(b1-4)GlcNAc", "how_it_was_run": "as §1"}},
  "note": "The list shows a part of the results.",
  "data": [
    {"binder": "B1", "values": [
      {"measurement": "glycan array binding signal (z-score)", "setting": "Fuc(a1-2)Gal", "value": -0.166},
      {"measurement": "glycan array binding signal (z-score)", "setting": "Fuc(a1-2)Gal(b1-3)GalNAc", "value": -0.306},
      {"measurement": "glycan array binding signal (z-score)", "setting": "[1]", "value": -0.741},
      {"measurement": "glycan array binding signal (z-score)", "setting": "[2]", "value": -0.548},
      {"measurement": "glycan array binding signal (z-score)", "setting": "[3]", "value": -0.782},
      {"measurement": "glycan array binding signal (z-score)", "setting": "[4]", "value": -0.187},
      {"measurement": "glycan array binding signal (z-score)", "setting": "[5]", "value": -0.424},
      {"measurement": "glycan array binding signal (z-score)", "setting": "Fuc(a1-2)Gal(b1-3)GlcNAc", "value": -0.457},
      {"measurement": "glycan array binding signal (z-score)", "setting": "[6]", "value": 0.846},
      {"measurement": "glycan array binding signal (z-score)", "setting": "[7]", "value": 0.262},
      {"measurement": "glycan array binding signal (z-score)", "setting": "[8]", "value": -0.68},
      {"measurement": "glycan array binding signal (z-score)", "setting": "[9]", "value": -0.079},
      {"measurement": "glycan array binding signal (z-score)", "setting": "[10]", "value": 0.31},
      {"measurement": "glycan array binding signal (z-score)", "setting": "[11]", "value": 0.203},
      {"measurement": "glycan array binding signal (z-score)", "setting": "[12]", "value": -0.326},
      {"measurement": "glycan array binding signal (z-score)", "setting": "[13]", "value": 0.079},
      {"measurement": "glycan array binding signal (z-score)", "setting": "[14]", "value": -0.824},
      {"measurement": "glycan array binding signal (z-score)", "setting": "[15]", "value": -0.077},
      {"measurement": "glycan array binding signal (z-score)", "setting": "[16]", "value": -0.205},
      {"measurement": "glycan array binding signal (z-score)", "setting": "[17]", "value": -0.223},
      {"measurement": "glycan array binding signal (z-score)", "setting": "[18]", "value": -0.829},
      {"measurement": "glycan array binding signal (z-score)", "setting": "Fuc(a1-2)Gal(b1-4)Glc", "value": -0.058},
      {"measurement": "glycan array binding signal (z-score)", "setting": "Fuc(a1-2)Gal(b1-4)Glc6S", "value": -0.448},
      {"measurement": "glycan array binding signal (z-score)", "setting": "Fuc(a1-2)Gal(b1-4)GlcNAc", "value": -0.024},
      {"measurement": "glycan array binding signal (z-score)", "setting": "[19]", "value": 0.435},
      {"measurement": "glycan array binding signal (z-score)", "setting": "[20]", "value": -0.163},
      {"measurement": "glycan array binding signal (z-score)", "setting": "[21]", "value": 2.33},
      {"measurement": "glycan array binding signal (z-score)", "setting": "[22]", "value": 0.114},
      {"measurement": "glycan array binding signal (z-score)", "setting": "[23]", "value": -0.786},
      {"measurement": "glycan array binding signal (z-score)", "setting": "[24]", "value": 0.121}
    ]}
  ]
}
